From article PMC10190621
No constants are given. Whether binding was seen depends on the method and setting. Sequences can lack the tags named with a protein.

Target: T1, Fc-tagged DDRGK1 (full length) (human) (UniProt Q96HY6)
T1 sequence: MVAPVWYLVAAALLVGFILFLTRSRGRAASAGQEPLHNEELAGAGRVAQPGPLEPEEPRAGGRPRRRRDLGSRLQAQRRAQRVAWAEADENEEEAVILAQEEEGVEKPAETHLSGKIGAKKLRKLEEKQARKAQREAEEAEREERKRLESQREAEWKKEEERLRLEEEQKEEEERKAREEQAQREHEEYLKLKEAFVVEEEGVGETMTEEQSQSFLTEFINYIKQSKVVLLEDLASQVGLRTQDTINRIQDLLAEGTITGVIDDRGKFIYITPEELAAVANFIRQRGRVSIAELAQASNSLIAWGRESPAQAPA
Assay: pull-down; Fc pulldown: 10 µg purified Fc or Fc-DDRGK1 on Protein A/G immunomagnetic beads (room temperature 0.5 h), mixed with recombinant NRF2 and KEAP1 proteins at 4 °C overnight, washed three times, immunoblot; both purified

- binding: no binding (tested: 10 µg Fc-DDRGK1)
B1: GST-tagged NRF2 (N-terminal amino acids 1-84, containing domains interacting with KEAP1) (domain or fragment, UniProt Q16236 1-84)
chain: MMDLELPPPGLPSQQDMDLIDILWRQDIDLGVSREVFDFSQRRKEYELEKQKKLEKERQEQLQKEQEKAFFAQLQLDEETGEFL
